# Test results as given in the supplement of paper PMC7826260.
# The list shows a part of the results. The data describe in vitro nicking of single-stranded DNA by Rep domains (1 h at 37 °C, 3 µM enzyme); the outer parts of the 90-letter strands are left off. Numbers give uncut DNA relative to the enzyme-free pool, as log2; more negative means more cut, near 0 not cut, and no call is made. Because reads are shares of a total, they shift together; where an enzyme cuts many sequences, the uncut ones exceed 0.
# Columns and labels:
# Assay in all cases: uncleaved DNA left, log2 of reads against the no-enzyme library (log2 ratio); higher = less cleavage (more negative = more Rep cleavage of the k-mer); sequences stand for … in CTCGTCCG…ACCGGAGA
# [1] = test system: T1, Rep nickase domain of Muscovy duck circovirus
# T1 sequence (Rep 1-111, printed without the tag): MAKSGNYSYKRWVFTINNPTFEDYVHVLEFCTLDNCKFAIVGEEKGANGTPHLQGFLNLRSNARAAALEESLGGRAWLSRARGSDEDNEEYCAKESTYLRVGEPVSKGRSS
# Method: (§1)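 A pool of 90-nt single-stranded DNAs with seven random bases just before the constant AC of the nick site (name = the seven bases) was cut by 3 µM recombinant His6-SUMO-tagged Rep nickase domain (300 nM DNA, 50 mM HEPES pH 8.0, 50 mM NaCl, 1 mM MnCl2, 1 h, 37 °C, three replicates). Uncut DNA was amplified and sequenced.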
# [2] = test system: T2, Rep nickase domain of banana bunchy top virus
# T2 sequence (Rep 1-94, printed without the tag): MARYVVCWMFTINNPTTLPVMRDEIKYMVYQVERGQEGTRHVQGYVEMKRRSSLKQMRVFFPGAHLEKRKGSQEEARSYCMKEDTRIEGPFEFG
# Method: as §1
# [3] = test system: T3, Rep nickase domain of cabbage leaf curl virus
# T3 sequence (Rep 1-116, printed without the tag): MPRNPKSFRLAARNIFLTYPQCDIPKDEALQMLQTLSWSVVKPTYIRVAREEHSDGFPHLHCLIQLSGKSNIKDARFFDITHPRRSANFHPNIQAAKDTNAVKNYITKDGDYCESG
# Method: as §1
# [4] = test system: T4, Rep nickase domain of chickpea chlorotic dwarf virus
# T4 sequence (Rep 1-124, printed without the tag): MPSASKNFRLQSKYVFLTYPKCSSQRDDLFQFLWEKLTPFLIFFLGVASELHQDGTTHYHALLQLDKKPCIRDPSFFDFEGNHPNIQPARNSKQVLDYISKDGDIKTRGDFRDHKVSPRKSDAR
# Method: as §1
# [5] = test system: T5, Rep nickase domain of faba bean necrotic yellows virus
# T5 sequence (Rep 1-98, printed without the tag): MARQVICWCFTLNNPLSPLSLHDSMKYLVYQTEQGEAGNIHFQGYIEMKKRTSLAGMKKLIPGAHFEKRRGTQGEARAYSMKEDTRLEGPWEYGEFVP
# Method: as §1
# [6] = test system: T6, Rep nickase domain of maize striate mosaic virus
# T6 sequence (Rep 1-117, printed without the tag): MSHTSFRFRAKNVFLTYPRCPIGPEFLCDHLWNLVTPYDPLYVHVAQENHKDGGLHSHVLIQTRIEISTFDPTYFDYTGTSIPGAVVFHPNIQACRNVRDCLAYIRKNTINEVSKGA
# Method: as §1
# [7] = test system: T7, Rep nickase domain of porcine circovirus 2
# T7 sequence (Rep 2-116, printed without the tag): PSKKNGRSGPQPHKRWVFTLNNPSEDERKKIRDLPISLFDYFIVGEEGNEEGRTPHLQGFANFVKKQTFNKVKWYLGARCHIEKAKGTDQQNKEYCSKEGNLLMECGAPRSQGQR
# Method: as §1
# [8] = test system: T8, Rep nickase domain of tomato yellow leaf curl virus
# T8 sequence (Rep 1-136, printed without the tag): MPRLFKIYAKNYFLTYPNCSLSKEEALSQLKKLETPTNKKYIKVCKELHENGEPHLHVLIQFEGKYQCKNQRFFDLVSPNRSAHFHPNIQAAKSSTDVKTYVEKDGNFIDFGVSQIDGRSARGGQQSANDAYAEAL
# Method: as §1
# [9] = test system: T9, Rep nickase domain of wheat dwarf virus
# T9 sequence (Rep 1-137, printed without the tag): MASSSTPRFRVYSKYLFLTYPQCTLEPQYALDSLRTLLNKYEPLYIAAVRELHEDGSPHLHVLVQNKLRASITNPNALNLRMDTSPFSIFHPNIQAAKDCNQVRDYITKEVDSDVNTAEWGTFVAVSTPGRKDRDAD
# Method: as §1
Sequence,uncleaved DNA left (log2) [1],uncleaved DNA left (log2) [2],uncleaved DNA left (log2) [3],uncleaved DNA left (log2) [4],uncleaved DNA left (log2) [5],uncleaved DNA left (log2) [6],uncleaved DNA left (log2) [7],uncleaved DNA left (log2) [8],uncleaved DNA left (log2) [9]
TCGGACT,0.092,0.174,0.719,1.15,0.0933,1.81,0.201,0.018,0.238
CGTGGTG,0.131,0.0125,-0.489,-0.243,0.0717,-0.755,0.118,0.166,-0.0603
TGTGAAC,0.00643,0.0929,0.365,0.701,-0.0689,1.38,0.00644,0.137,0.0216
CCATCCC,-0.0205,-0.117,-0.193,-0.355,-0.0592,-0.469,-0.0563,-0.272,-0.174
CCCAATA,-0.12,0.0654,-0.186,-1.69,-0.0936,-0.631,-0.205,0.0205,-0.0361
TAGAGTG,0.0687,0.115,-0.0676,-0.0538,0.117,0.0614,0.0621,-0.0377,-0.0234
GCGCCTG,-0.026,-0.000218,0.0235,0.568,-0.0293,1.63,0.0334,-0.179,0.0439
TCCGCCA,0.00935,-0.167,-0.0721,-0.744,0.0166,-0.479,-0.137,-0.202,-0.0543
CCAGAAC,-0.131,-0.00994,0.115,-0.347,0.057,-0.598,0.0939,-0.138,-0.0489
CCTCATC,0.124,0.0408,0.0754,-0.159,0.0191,-0.637,-0.0118,0.0203,0.0335
CCAACCG,-0.063,0.0755,-0.663,-1.08,0.0983,-0.74,-0.00211,0.000841,-0.0504
GAGTCGT,-0.00784,-0.143,-0.0227,0.0843,-0.0271,-0.53,-2.74,0.123,0.102
ATTCGTG,0.112,0.0485,-0.821,-0.684,0.0155,-1.06,0.0136,0.00922,-0.0687
TCATTTA,-0.261,-0.0581,-0.165,-1.49,-0.143,-0.647,-0.266,-0.244,-0.15
CCATACT,-3.37,-0.376,-2,-3.19,-0.0245,-1.37,-3.54,0.00654,-0.381
CGTGTAT,-0.00666,-0.000158,0.217,0.254,0.0168,0.596,-0.0219,0.111,0.085
GCCGACT,-0.0231,-0.168,0.0604,0.21,-0.207,1.18,-0.132,-0.134,-0.128
GCGGGTC,0.206,0.163,0.732,1.05,0.041,1.7,0.37,0.111,0.141
GAATATA,-0.109,0.0657,-0.0995,-1.57,0.0502,0.893,-0.663,0.0231,0.00697
ACGGATC,0.106,-0.0268,-0.0011,0.408,0.00766,0.499,0.182,-0.0529,0.0318

Sequence,uncleaved DNA left (log2) [1],uncleaved DNA left (log2) [2],uncleaved DNA left (log2) [3],uncleaved DNA left (log2) [4],uncleaved DNA left (log2) [5],uncleaved DNA left (log2) [6],uncleaved DNA left (log2) [7],uncleaved DNA left (log2) [8],uncleaved DNA left (log2) [9]
GGATTAG,0.0495,-0.0588,-0.19,-0.0436,0.0502,-0.69,0.0767,0.0357,-0.0147
TTCGTCC,-0.0036,-0.191,0.079,-0.359,-0.118,-0.452,-0.267,-0.241,-0.268
ATTCCAA,-0.161,-0.103,-0.0901,-0.293,-0.116,-0.611,-0.728,-0.0327,0.0535
TACCAGG,-0.0213,0.0596,0.339,1.05,0.049,0.832,0.036,0.0331,0.0861
CGTTACA,0.0997,0.0685,-0.0147,-1.55,0.0119,-0.122,-0.00468,0.129,0.0477
GCGGCCA,0.0489,0.0266,0.451,0.937,-0.169,1.27,0.0156,-0.0155,0.0808
TAACCGT,-0.0672,-0.0663,-1.89,-2.79,0.0801,-1.19,-0.359,0.0117,-0.331
ATCCACA,-0.0773,0.0567,-0.168,-1.36,0.0923,-0.688,-0.112,-0.0248,0.11
GGATAAC,0.232,0.115,0.53,1.21,0.0201,1.83,0.199,0.159,0.27
GACCACA,0.0907,0.126,0.393,-0.77,0.0065,0.285,-0.0143,0.0754,0.12
CCCCAAG,-0.254,-0.0196,-0.866,-0.319,-0.213,-1.18,-0.0965,0.0172,-0.111
CGACCGC,-0.0519,-0.0194,0.216,0.143,-0.105,-0.159,0.0734,-0.0257,0.144
ACGAGGA,0.0112,0.0211,0.159,0.354,0.16,-0.386,-0.0945,-0.0659,0.0339
TACCGAA,-0.0401,-0.0202,0.0446,-0.738,0.0836,-0.488,-0.351,-0.171,-0.11
CGAATTT,-0.0193,-0.182,-0.0874,-1.97,-0.0633,-0.464,-0.303,-0.031,-0.0323
ACGACTC,-0.00596,0.0324,-0.0292,0.461,0.0279,0.701,0.0652,0.0488,0.134
GCCGAGG,0.0635,-0.141,0.599,1.13,-0.0625,1.38,0.0896,0.00847,-0.00912
GGGCCCC,-0.108,-0.0168,0.678,1.51,-0.0438,2.03,0.149,-0.0778,0.0676
TCCTCGT,0.0476,-0.0943,-0.257,-0.922,-0.048,-0.945,-0.231,0.0227,-0.0956
CGTCGCC,0.0768,-0.00038,-0.0163,0.0219,-0.0972,-0.352,0.0869,-0.102,-0.0187

Sequence,uncleaved DNA left (log2) [1],uncleaved DNA left (log2) [2],uncleaved DNA left (log2) [3],uncleaved DNA left (log2) [4],uncleaved DNA left (log2) [5],uncleaved DNA left (log2) [6],uncleaved DNA left (log2) [7],uncleaved DNA left (log2) [8],uncleaved DNA left (log2) [9]
ACGTAAC,0.0446,-0.0806,-0.383,-1.08,-0.126,-0.684,0.0265,-0.235,-0.123
ACACGAT,-0.0716,-0.0811,-0.372,-0.836,0.038,-0.666,0.138,-0.0901,-0.0643
TCTAACT,0.00841,-0.2,-0.444,-2.73,0.0216,-0.713,-0.696,-0.0161,-0.134
TTTCAGG,0.0255,-0.00109,0.416,1.28,-0.0591,1.74,-0.0205,-0.108,-0.0831
AAGGGGA,0.0284,0.0407,0.36,0.972,-0.00268,1.11,0.0571,-0.148,0.0153
GGCGGAA,0.12,0.11,0.336,1.07,0.127,1.18,0.154,0.0255,0.0126
GTAAGAA,0.0304,0.0506,0.2,0.554,0.109,1.22,0.153,-0.0152,0.0956
CCCAAGT,-0.0412,-0.116,-0.0191,-0.214,-0.093,-0.655,-0.0774,-0.158,-0.142
AACGCTC,0.0982,0.018,0.0954,-0.208,0.0328,0.346,0.118,0.0328,0.00179
TTCGGGG,0.00381,-0.0742,0.571,0.824,0.0295,1.13,0.15,-0.0632,0.0251
GGTTACA,0.0554,0.132,0.522,1.05,0.0426,1.97,0.149,0.0858,0.124
CCGCAGC,-0.0765,-0.144,-0.389,-0.197,-0.15,-0.817,0.019,0.0733,-0.165
AGTTAGG,0.124,0.135,0.293,1.18,0.103,1.04,0.188,-0.0348,0.0527
GACGCAT,-0.0217,0.0394,0.418,0.617,-0.02,1.32,0.147,0.00244,0.105
ATTCTCG,-0.109,-0.0531,-0.918,-0.526,-0.0657,-1.12,0.0767,-0.0118,-0.0287
ACTATCT,-0.072,-0.0163,-0.374,-2.37,-0.0804,-0.851,-2.94,-0.039,-0.175
AAACCCT,-0.0282,-0.115,-0.372,-2.31,-0.0108,0.204,-0.518,-0.0198,0.0147
GGCCACC,-0.000189,0.0816,0.467,1.13,0.0158,1.66,-0.00228,0.0494,0.176
CTATTCC,0.0149,0.104,0.0188,-0.0645,0.0652,-0.653,0.0966,0.114,0.00144
TGTCAAC,0.103,0.21,0.533,0.602,0.094,1.48,0.123,0.107,0.131
